The campaign covered roughly 270,000 compounds. About 5,800 (2.1%) were called active. The inconclusive results got no clear call from the source; some entries with a clear call stand among them for comparison. The call rests on the fitted dose curve; in most records, active means well fitted inhibition curve with a large enough effect; inconclusive means small, poorly fitted or top-dose-only effect; inactive means flat fitted curve, though single readings scatter. Potencies of inconclusive entries are doubtful fits and often do not repeat.
Biological target: Microtubule-associated protein tau (Homo sapiens) (UniProt P10636)
Assay: qHTS for Inhibitors of Tau Fibril Formation, Thioflavin T Binding; further: nearly all actives have a fitted effect of over 55% in size
Conditions: recombinant tau K18 P301L (four-repeat tau fragment), heparin-induced fibrillization, ThT fluorescence; series mostly up to 57.4 µM
Procedure, shortened: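 Tau K18 P301L fragment (15 uM unlabeled plus 0.24 uM Alexa 594-labeled) in 100 mM sodium acetate pH 7 with compound, fibrillization induced by 20 uM heparin for 6 hr at 37 C. Thioflavin T (30 uM) added, fluorescence read after 1 hr (ex 450, em 510 nm).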
On the % scale 0 is the no-effect control and ±100 the full control effect; potency means the concentration at half of the fitted maximal effect; tags describe the fitted curve by direction and shape.

Sequence of UniProt P10636 (P10636 whole entry, looked up): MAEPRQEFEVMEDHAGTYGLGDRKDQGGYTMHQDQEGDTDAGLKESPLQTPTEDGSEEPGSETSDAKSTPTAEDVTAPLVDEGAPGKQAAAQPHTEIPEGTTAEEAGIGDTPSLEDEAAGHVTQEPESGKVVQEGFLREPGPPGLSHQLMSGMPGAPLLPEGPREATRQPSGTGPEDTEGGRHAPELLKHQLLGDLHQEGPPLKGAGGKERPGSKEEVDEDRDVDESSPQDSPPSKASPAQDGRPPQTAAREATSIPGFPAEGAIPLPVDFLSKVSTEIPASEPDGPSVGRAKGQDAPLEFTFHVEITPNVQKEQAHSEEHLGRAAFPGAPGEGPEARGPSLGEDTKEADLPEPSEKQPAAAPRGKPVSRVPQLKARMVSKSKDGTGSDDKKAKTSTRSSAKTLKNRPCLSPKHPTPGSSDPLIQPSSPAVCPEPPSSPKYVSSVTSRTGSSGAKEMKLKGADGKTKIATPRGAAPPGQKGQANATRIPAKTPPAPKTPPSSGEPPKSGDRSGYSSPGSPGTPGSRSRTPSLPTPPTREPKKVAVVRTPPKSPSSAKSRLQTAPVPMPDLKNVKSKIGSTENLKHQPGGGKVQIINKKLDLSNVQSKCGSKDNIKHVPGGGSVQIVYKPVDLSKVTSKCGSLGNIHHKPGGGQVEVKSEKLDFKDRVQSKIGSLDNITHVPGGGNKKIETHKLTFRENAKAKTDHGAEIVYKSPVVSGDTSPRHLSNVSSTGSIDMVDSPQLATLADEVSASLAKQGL

**Q.** With `O=C(c1ccc2ccccc2c1)N1CCN(c2ccc(O)cc2)CC1` as the compound, how does the Potency read?
**A.** inconclusive: 14.1 µM [inhibitor, partial curve]

**Q.** With `COC(=O)c1[nH]c2ccccc2c1NC(=O)Oc1ccccc1` as the compound, how does the Potency read?
**A.** inconclusive: 20 µM [inhibitor, partial curve]

**Q.** `CCc1ccc(C(=O)c2cn(CC(=O)Nc3ccc4c(c3)OCCO4)c3ccc(C)cc3c2=O)cc1` was tested. Which Potency did it give?
**A.** inactive

**Q.** Which Potency does the source give for `O=C(CCSCc1ccccc1Cl)N1CCN(c2ccc(F)cc2)CC1` here?
**A.** inconclusive: 3.16 µM [inhibitor, full curve]

**Q.** How did the Potency turn out when `Cc1ccccc1-c1nc(CS(=O)(=O)CC(=O)N2CCc3ccccc3C2)c(C)o1` was run?
**A.** inconclusive: 8.91 µM [inhibitor, partial curve]

**Q.** For `COc1ccc(N2CCN(C(=O)COc3ccc4c(C)cc(=O)oc4c3)CC2)cc1`, which Potency is on record?
**A.** inconclusive: 2.24 µM [inhibitor, full curve]

**Q.** How did the Potency turn out when `CCOc1ccc(CNC(=O)C2CCN(C(=O)c3sccc3-n3cccc3)CC2)cc1` was run?
**A.** inactive

**Q.** How did the Potency turn out when `Cc1csc2nc(CSc3nc4ccccc4o3)cn12` was run?
**A.** inconclusive: 20 µM [inhibitor, single point]

**Q.** `CN(C)c1cccc2c1c(NC(=O)Nc1ccccc1)nn2C` was tested. Which Potency did it give?
**A.** inconclusive: 39.8 µM [inhibitor, single point]

**Q.** For `Cc1ccc(-c2noc(CSc3nnc(C)n3-c3ccc(C)cc3)n2)cc1`, which Potency is on record?
**A.** inactive

**Q.** For `Cc1cc(C)cc(N(CC(=O)Nc2ccccc2)C2=NC3CS(=O)(=O)CC3S2)c1` (stereo not drawn), which Potency is on record?
**A.** inconclusive: 25.1 µM [inhibitor, partial curve]

**Q.** `C#CCNC(=O)C1=C[C@H](c2ccccc2)C[C@H](OCCCCO)O1` was tested. Which Potency did it give?
**A.** inactive

**Q.** With `CCC1=C2CC[C@H]3C(=O)N(CC(=O)OC)C(=O)[C@H]3[C@H]2[C@@]2(C)C(=O)N(Cc3ccccc3)C(=O)N2C1=O` as the compound, how does the Potency read?
**A.** inactive

**Q.** `CC(Cc1ccccc1)N/C=C1/CC(=O)NC1=O` (stereo not drawn) was tested. Which Potency did it give?
**A.** inactive

**Q.** Which Potency does the source give for `O=C(CSc1nc2[nH]ncc2c(=O)[nH]1)c1ccc(Cl)cc1` here?
**A.** inactive

**Q.** With `CCOc1ccc(CNC(=O)c2cnc3sc(N4CCCCCC4)nn3c2=O)cc1OC` as the compound, how does the Potency read?
**A.** inactive

**Q.** `COc1ccccc1N1CC(O)=C(c2nc3ccccc3c(=O)[nH]2)C1=N` was tested. Which Potency did it give?
**A.** inconclusive: 31.6 µM [inhibitor, single point]

**Q.** With `Cn1cc(C(F)(F)F)nc1-c1ccc(OCC(O)CNCCOc2ccc(O)c(C(N)=O)c2)cc1` (stereo not drawn) as the compound, how does the Potency read?
**A.** inactive

**Q.** How did the Potency turn out when `COc1ccc(Cn2ccc3nc(C)c(C(=O)N4CCN(c5cc(C)ccc5C)CC4)cc3c2=O)cc1` was run?
**A.** inconclusive: 25.1 µM [inhibitor, single point]

**Q.** For `O=C(O)CCc1ccc(-c2cccs2)n1CC(=O)Nc1ccccc1C(F)(F)F`, which Potency is on record?
**A.** inconclusive: 20 µM [inhibitor, partial curve]

**Q.** Which Potency does the source give for `COCCNc1ncnc2onc(-c3ccc(F)cc3)c12` here?
**A.** inactive

**Q.** How did the Potency turn out when `CCOC(=O)C1=C(N)Oc2c(c(=O)[nH]c3ccccc23)C1c1ccccc1` (stereo not drawn) was run?
**A.** inactive

**Q.** `COc1cc(NC(=O)c2ccco2)c(OC)cc1NC(=O)Nc1ccc(Cl)cc1` was tested. Which Potency did it give?
**A.** inconclusive: 7.08 µM [inhibitor, partial curve]

**Q.** Which Potency does the source give for `COc1cc(CNc2ccc3[nH]c(=O)[nH]c3c2)cc(Br)c1OCc1ccc(F)cc1` here?
**A.** inconclusive: 1 µM [inhibitor, full curve]

**Q.** `COc1ccccc1CNC(=O)c1cc2cc(C)ccc2n1C` was tested. Which Potency did it give?
**A.** inactive

**Q.** Which Potency does the source give for `CCc1ccc(C(=O)CSc2n[nH]c(-c3ccncc3)n2)cc1` here?
**A.** inconclusive: 20 µM [inhibitor, single point]

**Q.** With `CCC(=O)Nc1cc(C(F)(F)F)ccc1N1CCCC1` as the compound, how does the Potency read?
**A.** inconclusive: 22.4 µM [inhibitor, single point]

**Q.** How did the Potency turn out when `COc1ccc2c(c1)OC/C(=C/c1cccs1)C2=O` was run?
**A.** inconclusive: 1.26 µM [inhibitor, full curve]

**Q.** For `CCOC(=O)N/N=C1/C[C@@H](O)[C@@H](O)[C@@H]2[C@@H]3C(=O)N(C(C)(C)C)C(=O)[C@H]3CC[C@H]12`, which activity, negative = inhibition is on record?
**A.** inactive: -2.3% [at 11.5 µM]

**Q.** `COC(=O)c1sccc1NC(=O)Nc1cccc(C)c1` was tested. Which Potency did it give?
**A.** inconclusive: 1.58 µM [inhibitor, full curve]

**Q.** For `CCOc1ccc(CCNC(=O)c2sc3ncccc3c2-n2c(C)ccc2C)cc1`, which Potency is on record?
**A.** inconclusive: 39.8 µM [inhibitor, single point]

**Q.** How did the Potency turn out when `Cc1cc(C(=O)N/N=C/c2cn[nH]c2-c2ccccc2)cs1` was run?
**A.** inconclusive: 20 µM [inhibitor, single point]

**Q.** Which Potency does the source give for `CCn1c(=O)n(-c2ccc(Cl)cc2)c(=O)c2c3c(sc21)COC(C)(C)C3` here?
**A.** inconclusive: 3.16 µM [inhibitor, single point]

**Q.** How did the Potency turn out when `Cc1cc(=O)n(CC(=O)Nc2cccc([N+](=O)[O-])c2)c(-n2nc(C)cc2C)n1` was run?
**A.** inconclusive: 25.1 µM [inhibitor, partial curve]

**Q.** Which Potency does the source give for `CCOc1ccc2[nH]c(=O)c(CN(Cc3ccco3)C(=O)c3cccc(F)c3)cc2c1` here?
**A.** inconclusive: 25.1 µM [inhibitor, partial curve]

**Q.** With `Cc1oc(-c2cccc(C(F)(F)F)c2)nc1CN1CCOCC1` as the compound, how does the Potency read?
**A.** inconclusive: 28.2 µM [inhibitor, partial curve]

**Q.** For `Cc1ccc2c(c1)CC(C)N2S(=O)(=O)c1nnc(NC(=O)C(C)C)s1` (stereo not drawn), which Potency is on record?
**A.** inconclusive: 3.98 µM [inhibitor, full curve]

**Q.** Which Potency does the source give for `CCN=c1scc(-c2ccccc2)n1/N=C/c1ccccn1` here?
**A.** inconclusive: 14.1 µM [inhibitor, partial curve]

**Q.** How did the Potency turn out when `CCCN(C(=O)c1sc2nc3n(c(=O)c2c1C)CCCC3)c1ccccc1C` was run?
**A.** inactive

**Q.** With `O=C(CSc1nnc(-c2ccc(Br)cc2)o1)N1CCN(C(=O)c2ccco2)CC1` as the compound, how does the Potency read?
**A.** inconclusive: 1.41 µM [inhibitor, full curve]

**Q.** `O=C1CN(C(=O)COC(=O)c2ccc(N3CCCCCC3)c([N+](=O)[O-])c2)c2ccccc2N1` was tested. Which Potency did it give?
**A.** inconclusive: 12.6 µM [inhibitor, partial curve]

**Q.** Which Potency does the source give for `O=C(c1cc2ccccc2o1)N1CCCCCC1` here?
**A.** inactive

**Q.** How did the Potency turn out when `COC(=O)c1ccc(CSc2nc3ccccc3c(=O)n2-c2cccc(OC)c2)o1` was run?
**A.** inconclusive: 39.8 µM [inhibitor, single point]

**Q.** With `O=C(N/N=C/c1ccco1)c1cccc(N2CCCC2=O)c1` as the compound, how does the Potency read?
**A.** inactive

**Q.** With `COc1cc2nc(Nc3ccc(F)cc3)nc(N)c2cc1OC` as the compound, how does the Potency read?
**A.** inconclusive: 3.16 µM [inhibitor, single point]

**Q.** How did the Potency turn out when `CC(=O)N1c2ccc(Cl)cc2C2C=CCC2C1c1cccc2ccccc12` (stereo not drawn) was run?
**A.** inconclusive: 20 µM [inhibitor, partial curve]

**Q.** How did the Potency turn out when `COc1ccc(CNC(=O)CN2C(=O)CSc3ccc(S(=O)(=O)N4CCCC4)cc32)cc1` was run?
**A.** inactive

**Q.** How did the Potency turn out when `Cc1ccc(C)c(Cn2nnc3c(=O)[nH]c(C4CCCN(C(=O)C5CCC5)C4)nc32)c1` (stereo not drawn) was run?
**A.** inconclusive: 22.4 µM [inhibitor, partial curve]

**Q.** How did the Potency turn out when `Cc1ccccc1CN1CCNC(=O)C1CC(=O)O` (stereo not drawn) was run?
**A.** inactive

**Q.** Which Potency does the source give for `CCc1ccccc1NC(=O)C(C)n1nc(-c2ccc(C)c(C)c2)ccc1=O` (stereo not drawn) here?
**A.** inconclusive: 39.8 µM [inhibitor, single point]

**Q.** Which Potency does the source give for `CCOC(=O)C1CCN(c2nc3ccccc3nc2C(C#N)C(=O)OC(C)COC)CC1` (stereo not drawn) here?
**A.** inconclusive: 31.6 µM [inhibitor, single point]

**Q.** For `COC(=O)c1c(NC(=O)CN2CCC3(O)CCCCC3C2c2cc(OC)ccc2OC)sc(C)c1C` (stereo not drawn), which Potency is on record?
**A.** inconclusive: 17.8 µM [inhibitor, single point]

**Q.** With `Cc1ccc(C)c(Nc2nc3nonc3nc2Nc2cccc(C)c2C)c1` as the compound, how does the Potency read?
**A.** inconclusive: 20 µM [inhibitor, single point]

**Q.** Which Potency does the source give for `Cc1cc(-c2nnc(CCC(=O)N3CCN(Cc4cccnc4)CC3)o2)c(C)o1` here?
**A.** inconclusive: 12.6 µM [inhibitor, partial curve]

**Q.** For `CC1=NOC(=O)/C1=C\c1ccc(-c2cc(Cl)ccc2Cl)o1`, which Potency is on record?
**A.** inconclusive: 10 µM [inhibitor, partial curve]

**Q.** With `COc1ccc(Cl)cc1NC(=O)N1CCC(CN2CCCCCC2)CC1` as the compound, how does the Potency read?
**A.** inconclusive: 25.1 µM [inhibitor, single point]

**Q.** With `CCN(CC)c1cc(C)c2cc(NC(=O)c3ccc(Br)o3)ccc2n1` as the compound, how does the Potency read?
**A.** inconclusive: 14.1 µM [inhibitor, partial curve]

**Q.** Which Potency does the source give for `COCCSc1ncnc2c1oc1nc3c(cc12)COC(C)(C)C3` here?
**A.** inconclusive: 4.47 µM [inhibitor, single point]

**Q.** `Cc1c(/C=N/NC(=O)c2ccc(O)cc2)c2ccccn2c1C(=O)c1ccc(F)cc1` was tested. Which Potency did it give?
**A.** inconclusive: 20 µM [inhibitor, partial curve]

**Q.** For `N#Cc1cc2c([nH]c1=S)CCCCCC2`, which Potency is on record?
**A.** inconclusive: 35.5 µM [inhibitor, single point]

**Q.** For `C/C=C(\C)C(=O)OC1[C@@H]2C=C3C4CC(=O)OC(c5ccoc5)[C@]4(C)CCC3[C@@](C)(C2=O)C(C(O)C(=O)OC)C1(C)C` (stereo partly drawn), which Potency is on record?
**A.** inactive

**Q.** For `CCN1C=C(Cc2ccc(F)cc2)C2=C(C1)C(c1ccc(F)cc1)C(C#N)=C(N)O2` (stereo not drawn), which Potency is on record?
**A.** inconclusive: 39.8 µM [inhibitor, single point]

**Q.** For `O=C(N/N=C/c1ccc[nH]1)c1ccc2c(c1)OCO2`, which Potency is on record?
**A.** inconclusive: 14.1 µM [inhibitor, partial curve]

**Q.** How did the Potency turn out when `CC1CCN(C(=O)c2ccc(S(=O)(=O)N(C)C)cc2)C(C)C1` (stereo not drawn) was run?
**A.** inactive

**Q.** How did the Potency turn out when `COc1ccc(/C=C/c2nc3ccccc3c(=O)n2-c2cccc(C(F)(F)F)c2)cc1` was run?
**A.** inactive

**Q.** `CC(=O)c1ccc(NC(=O)c2nc3ccccc3n(C)c2=O)cc1` was tested. Which Potency did it give?
**A.** inconclusive: 1.12 µM [inhibitor, full curve]

**Q.** How did the Potency turn out when `COCC1CCN(Cc2nc(-c3cccs3)no2)C1` (stereo not drawn) was run?
**A.** inconclusive: 17.8 µM [inhibitor, single point]

**Q.** Which Potency does the source give for `CCn1nc(C)c2c(-c3ccccc3)cc(=O)n(C(C)C(=O)NCc3ccc(C)cc3)c21` (stereo not drawn) here?
**A.** inconclusive: 0.282 µM [inhibitor, single point]

Source: PubChem BioAssay AID1460 (National Center for Advancing Translational Sciences (NCATS), 2008)
